Assay results reported in the supplement of paper PMC8728848.
This is one part of the list.

Legend:
Assay in all cases: glycan array binding signal (z-score within array); higher = stronger binding
Details in all cases: glycan notation: IUPAC condensed, linker removed
[1] = target: Gal(b1-3)[Fuc(a1-4)]GlcNAc(b1-3)Gal(b1-4)[Fuc(a1-3)]GlcNAc
Method in brief: (§1)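 The binding signal is a Z-score computed within each array and averaged over linkers. Arrays of the same protein sequence at different concentrations or buffers were also averaged together. Data originate from 3228 arrays in the Consortium for Functional Glycomics database, kept only where the protein sequence was available.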

[2] = target: Gal(b1-3)[GlcNAc(b1-6)]GalNAc
Method in brief: as §1

[3] = target: Gal(b1-3)[Neu5Ac(a2-6)]GalNAc
Method in brief: as §1

[4] = target: Gal(b1-3)[Neu5Ac(a2-6)]GlcNAc(b1-6)Gal(b1-4)Glc
Method in brief: as §1

[5] = target: Gal(b1-3)[Neu5Ac(b2-6)]GalNAc
Method in brief: as §1

[6] = target: Gal(b1-4)GalNAc(a1-3)[Fuc(a1-2)]Gal(b1-4)GlcNAc
Method in brief: as §1

[7] = target: Gal(b1-4)GalNAc(b1-3)[Fuc(a1-2)]Gal(b1-4)GlcNAc
Method in brief: as §1

[8] = target: Gal(b1-4)Glc
Method in brief: as §1

[9] = target: Gal(b1-4)Glc6S
Method in brief: as §1

[10] = target: Gal(b1-4)GlcNAc
Method in brief: as §1

[11] = target: Gal(b1-4)GlcNAc(a1-6)Gal(b1-4)GlcNAc
Method in brief: as §1

[12] = target: Gal(b1-4)GlcNAc(b1-2)Man(a1-3)[Gal(b1-4)GlcNAc(b1-2)Man(a1-6)]Man(b1-4)GlcNAc(b1-4)GlcNAc
Method in brief: as §1

[13] = target: Gal(b1-4)GlcNAc(b1-3)Gal(b1-3)GlcNAc
Method in brief: as §1

[14] = target: Gal(b1-4)GlcNAc(b1-3)Gal(b1-4)Glc
Method in brief: as §1

[15] = target: Gal(b1-4)GlcNAc(b1-3)Gal(b1-4)GlcNAc
Method in brief: as §1

[16] = target: Gal(b1-4)GlcNAc(b1-3)Gal(b1-4)GlcNAc(b1-3)Gal(b1-4)GlcNAc
Method in brief: as §1

[17] = target: Gal(b1-4)GlcNAc(b1-3)Gal(b1-4)[Fuc(a1-3)]GlcNAc(b1-3)Gal(b1-4)[Fuc(a1-3)]GlcNAc
Method in brief: as §1

[18] = target: Gal(b1-4)GlcNAc(b1-3)GalNAc
Method in brief: as §1

[19] = target: Gal(b1-4)GlcNAc(b1-3)[Gal(b1-4)GlcNAc(b1-6)]Gal(b1-4)GlcNAc
Method in brief: as §1

[20] = target: Gal(b1-4)GlcNAc(b1-3)[GlcNAc(b1-6)]Gal(b1-4)GlcNAc
Method in brief: as §1

[21] = target: Gal(b1-4)GlcNAc(b1-6)Gal(b1-4)GlcNAc
Method in brief: as §1

[22] = target: Gal(b1-4)GlcNAc(b1-6)Gal(b1-4)GlcNAc(b1-6)GalNAc
Method in brief: as §1

[23] = target: Gal(b1-4)GlcNAc(b1-6)GalNAc
Method in brief: as §1

[24] = target: Gal(b1-4)GlcNAc(b1-6)[Gal(b1-3)]GalNAc
Method in brief: as §1

[25] = target: Gal3S(b1-3)GalNAc
Method in brief: as §1

[26] = target: Gal3S(b1-3)GlcNAc
Method in brief: as §1

[27] = target: Gal3S(b1-3)[Fuc(a1-4)]GlcNAc
Method in brief: as §1

[28] = target: Gal3S(b1-4)Glc
Method in brief: as §1

[29] = target: Gal3S(b1-4)Glc6S
Method in brief: as §1

[30] = target: Gal3S(b1-4)GlcNAc
Method in brief: as §1

[31] = target: Gal3S(b1-4)GlcNAc6S
Method in brief: as §1

[32] = target: Gal3S(b1-4)[Fuc(a1-3)]Glc
Method in brief: as §1

[33] = target: Gal3S4S(b1-4)GlcNAc
Method in brief: as §1

[34] = target: Gal3S6S(b1-4)GlcNAc
Method in brief: as §1

[35] = target: Gal3S6S(b1-4)GlcNAc6S
Method in brief: as §1

[36] = target: Gal4S(b1-4)GlcNAc
Method in brief: as §1

[37] = target: Gal4S6S(b1-4)GlcNAc
Method in brief: as §1

[38] = target: Gal6S(b1-4)Glc
Method in brief: as §1

[39] = target: Gal6S(b1-4)Glc6S
Method in brief: as §1

[40] = target: Gal6S(b1-4)GlcNAc
Method in brief: as §1

[41] = target: Gal6S(b1-4)GlcNAc6S
Method in brief: as §1

[42] = target: GalNAc(a1-3)Gal
Method in brief: as §1

[43] = target: GalNAc(a1-3)GalNAc
Method in brief: as §1

[44] = target: GalNAc(b1-3)Gal
Method in brief: as §1

[45] = target: GalNAc(b1-3)Gal(a1-4)Gal(b1-4)GlcNAc
Method in brief: as §1

B1: HFR-1 (Triticum aestivum) (protein)
chain: MSPQSFTLETTTTTPAAKGSDPSYFQSAPACHEMIQHKELLLHLYAYQNVQKTPDANQAVIVESKRPECFGILAANDWTVYDGPAHNANLVAHAQGLHLGASMAKENWFICFNMVFVNQRFTGSSFKVMGDFQGTAHNGEWAIVGGTGEFAYAQGVIAFKKTQQSERNARMELHVRAMCLSFLRPLLSLGDGSAVAKIGPWGKMSGELLDIPSTPQRLERITIRHGVVIDSLAFSFIDKAGEPYNVGPWGGRRGDNKDTIELAPSEIVTEVSGTVGIFAEDNVEYNAIASLTITTNHRPYGPFGETQSTPFSVPVQDNNNIVGFFACAGKYVEALGVYVRSPVST
glycan array binding signal (z-score) [1]: -0.195 | glycan array binding signal (z-score) [2]: -0.094 | glycan array binding signal (z-score) [3]: -0.212 | glycan array binding signal (z-score) [4]: -0.188 | glycan array binding signal (z-score) [5]: -0.222 | glycan array binding signal (z-score) [6]: 0.021 | glycan array binding signal (z-score) [7]: 0.076 | glycan array binding signal (z-score) [8]: 0.153 | glycan array binding signal (z-score) [9]: 0.057 | glycan array binding signal (z-score) [10]: -0.209 | glycan array binding signal (z-score) [11]: -0.218 | glycan array binding signal (z-score) [12]: -0.223 | glycan array binding signal (z-score) [13]: -0.196 | glycan array binding signal (z-score) [14]: -0.14 | glycan array binding signal (z-score) [15]: -0.198 | glycan array binding signal (z-score) [16]: -0.233 | glycan array binding signal (z-score) [17]: -0.22 | glycan array binding signal (z-score) [18]: -0.131 | glycan array binding signal (z-score) [19]: -0.098 | glycan array binding signal (z-score) [20]: -0.135 | glycan array binding signal (z-score) [21]: -0.222 | glycan array binding signal (z-score) [22]: -0.215 | glycan array binding signal (z-score) [23]: -0.139 | glycan array binding signal (z-score) [24]: -0.206 | glycan array binding signal (z-score) [25]: -0.16 | glycan array binding signal (z-score) [26]: -0.179 | glycan array binding signal (z-score) [27]: -0.139 | glycan array binding signal (z-score) [28]: -0.19 | glycan array binding signal (z-score) [29]: -0.123 | glycan array binding signal (z-score) [30]: -0.212 | glycan array binding signal (z-score) [31]: -0.158 | glycan array binding signal (z-score) [32]: -0.208 | glycan array binding signal (z-score) [33]: -0.193 | glycan array binding signal (z-score) [34]: -0.179 | glycan array binding signal (z-score) [35]: -0.18 | glycan array binding signal (z-score) [36]: -0.201 | glycan array binding signal (z-score) [37]: -0.189 | glycan array binding signal (z-score) [38]: -0.151 | glycan array binding signal (z-score) [39]: -0.151 | glycan array binding signal (z-score) [40]: -0.201 | glycan array binding signal (z-score) [41]: -0.151 | glycan array binding signal (z-score) [42]: -0.051 | glycan array binding signal (z-score) [43]: -0.194 | glycan array binding signal (z-score) [44]: -0.024 | glycan array binding signal (z-score) [45]: -0.153
